Source: article PMC9911399, “Two distinct binding modes provide the RNA-binding protein RbFox with extraordinary sequence specificity”
Positions count from the first letter of the chain named. The list shows a part of the results.

T1: RBFOX1 RRM RbFoxmut (Fox-RRM*) (Homo sapiens, UniProt Q9NWB1 109-208, R118D;E147R;N151S;E152T)
T1 sequence: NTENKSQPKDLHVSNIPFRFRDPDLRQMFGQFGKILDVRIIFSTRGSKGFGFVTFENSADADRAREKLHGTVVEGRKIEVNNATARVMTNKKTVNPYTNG

B1: UUCCUAC (DNA:RNA)
RNA: GGGAGACCGGAAUUCAGAUUGUCCUUCCUACUUAAAUCCCGUCGUAGCCACCA
DNA 1: CAATCTGAATTCCGGTCTCCC
DNA 2: TGGTGGCTACGACGGGATT
B2: ACCUGGA (DNA:RNA)
RNA: B1 RNA with U25A, U26C, C28U, U29G, A30G, C31A
DNA 1: CAATCTGAATTCCGGTCTCCC
DNA 2: TGGTGGCTACGACGGGATT
B3: UUGUUUU (DNA:RNA)
RNA: B1 RNA with C27G, C28U, A30U, C31U
DNA 1: CAATCTGAATTCCGGTCTCCC
DNA 2: TGGTGGCTACGACGGGATT
B4: CGAUAUA (DNA:RNA)
RNA: GGGAGACCGGAAUUCAGAUUGUCCCGAUAUAUUAAAUCCCGUCGUAGCCACCA
DNA 1: CAATCTGAATTCCGGTCTCCC
DNA 2: TGGTGGCTACGACGGGATT
B5: UUCAAAA (DNA:RNA)
RNA: B1 RNA with C28A, U29A, C31A
DNA 1: CAATCTGAATTCCGGTCTCCC
DNA 2: TGGTGGCTACGACGGGATT
B6: AUCGGCC (DNA:RNA)
RNA: B1 RNA with U25A, C28G, U29G, A30C
DNA 1: CAATCTGAATTCCGGTCTCCC
DNA 2: TGGTGGCTACGACGGGATT
B7: UCGACUG (DNA:RNA)
RNA: B4 RNA with C25U, G26C, A27G, U28A, A29C, A31G
DNA 1: CAATCTGAATTCCGGTCTCCC
DNA 2: TGGTGGCTACGACGGGATT
B8: CUUCAUG (DNA:RNA)
RNA: B4 RNA with G26U, A27U, U28C, A31G
DNA 1: CAATCTGAATTCCGGTCTCCC
DNA 2: TGGTGGCTACGACGGGATT
B9: UAGAAAG (DNA:RNA)
RNA: B1 RNA with U26A, C27G, C28A, U29A, C31G
DNA 1: CAATCTGAATTCCGGTCTCCC
DNA 2: TGGTGGCTACGACGGGATT
B10: CGGGAGU (DNA:RNA)
RNA: B4 RNA with A27G, U28G, U30G, A31U
DNA 1: CAATCTGAATTCCGGTCTCCC
DNA 2: TGGTGGCTACGACGGGATT
B11: ACACGUG (DNA:RNA)
RNA: B4 RNA with C25A, G26C, U28C, A29G, A31G
DNA 1: CAATCTGAATTCCGGTCTCCC
DNA 2: TGGTGGCTACGACGGGATT
B12: UGCCGGC (DNA:RNA)
RNA: B1 RNA with U26G, U29G, A30G
DNA 1: CAATCTGAATTCCGGTCTCCC
DNA 2: TGGTGGCTACGACGGGATT
B13: UUCCUUC (DNA:RNA)
RNA: B1 RNA with A30U
DNA 1: CAATCTGAATTCCGGTCTCCC
DNA 2: TGGTGGCTACGACGGGATT
B14: CGUGACU (DNA:RNA)
RNA: B4 RNA with A27U, U28G, U30C, A31U
DNA 1: CAATCTGAATTCCGGTCTCCC
DNA 2: TGGTGGCTACGACGGGATT
B15: CUCCAAU (DNA:RNA)
RNA: B1 RNA with U25C, U29A, C31U
DNA 1: CAATCTGAATTCCGGTCTCCC
DNA 2: TGGTGGCTACGACGGGATT
B16: CGAGACC (DNA:RNA)
RNA: B4 RNA with U28G, U30C, A31C
DNA 1: CAATCTGAATTCCGGTCTCCC
DNA 2: TGGTGGCTACGACGGGATT
B17: UAGAUAU (DNA:RNA)
RNA: B1 RNA with U26A, C27G, C28A, C31U
DNA 1: CAATCTGAATTCCGGTCTCCC
DNA 2: TGGTGGCTACGACGGGATT
B18: CGGAAAC (DNA:RNA)
RNA: B4 RNA with A27G, U28A, U30A, A31C
DNA 1: CAATCTGAATTCCGGTCTCCC
DNA 2: TGGTGGCTACGACGGGATT
B19: GAUGGCG (DNA:RNA)
RNA: GGGAGACCGGAAUUCAGAUUGUCCGAUGGCGUUAAAUCCCGUCGUAGCCACCA
DNA 1: CAATCTGAATTCCGGTCTCCC
DNA 2: TGGTGGCTACGACGGGATT
B20: AAACGAA (DNA:RNA)
RNA: B4 RNA with C25A, G26A, U28C, A29G, U30A
DNA 1: CAATCTGAATTCCGGTCTCCC
DNA 2: TGGTGGCTACGACGGGATT
B21: UCUGUGC (DNA:RNA)
RNA: B1 RNA with U26C, C27U, C28G, A30G
DNA 1: CAATCTGAATTCCGGTCTCCC
DNA 2: TGGTGGCTACGACGGGATT
B22: CGGCUGU (DNA:RNA)
RNA: B4 RNA with A27G, U28C, A29U, U30G, A31U
DNA 1: CAATCTGAATTCCGGTCTCCC
DNA 2: TGGTGGCTACGACGGGATT
B23: AUAGUCU (DNA:RNA)
RNA: B19 RNA with G25A, A26U, U27A, G29U, G31U
DNA 1: CAATCTGAATTCCGGTCTCCC
DNA 2: TGGTGGCTACGACGGGATT
B24: AUCCACG (DNA:RNA)
RNA: B1 RNA with U25A, U29A, A30C, C31G
DNA 1: CAATCTGAATTCCGGTCTCCC
DNA 2: TGGTGGCTACGACGGGATT
B25: GUGAGUA (DNA:RNA)
RNA: B4 RNA with C25G, G26U, A27G, U28A, A29G
DNA 1: CAATCTGAATTCCGGTCTCCC
DNA 2: TGGTGGCTACGACGGGATT
B26: CUUUGUC (DNA:RNA)
RNA: B4 RNA with G26U, A27U, A29G, A31C
DNA 1: CAATCTGAATTCCGGTCTCCC
DNA 2: TGGTGGCTACGACGGGATT
B27: UAAAAGC (DNA:RNA)
RNA: B4 RNA with C25U, G26A, U28A, U30G, A31C
DNA 1: CAATCTGAATTCCGGTCTCCC
DNA 2: TGGTGGCTACGACGGGATT
B28: UACGUCC (DNA:RNA)
RNA: B1 RNA with U26A, C28G, A30C
DNA 1: CAATCTGAATTCCGGTCTCCC
DNA 2: TGGTGGCTACGACGGGATT
B29: GAGUGUG (DNA:RNA)
RNA: B19 RNA with U27G, G28U, C30U
DNA 1: CAATCTGAATTCCGGTCTCCC
DNA 2: TGGTGGCTACGACGGGATT
B30: ACACGGC (DNA:RNA)
RNA: B1 RNA with U25A, U26C, C27A, U29G, A30G
DNA 1: CAATCTGAATTCCGGTCTCCC
DNA 2: TGGTGGCTACGACGGGATT
B31: CUGCAGU (DNA:RNA)
RNA: B4 RNA with G26U, A27G, U28C, U30G, A31U
DNA 1: CAATCTGAATTCCGGTCTCCC
DNA 2: TGGTGGCTACGACGGGATT

target: T1, RBFOX1 RRM RbFoxmut (Fox-RRM*); test: EMSA; HiTS-Eq, 1 nM pool, 10 min; buffer printed only for the single-RNA assays: 10 mM Tris pH 7.5, 150 mM NaCl, 3.4 mM EDTA, 0.001% NP-40, 30 C; settings: tags: His6 N-terminal (pET28a); label: 5' 32P
In short: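 These values rest on relative association constants, computed from read-count changes of each RNA species versus the control reaction and normalised to the cognate motif. Reads came from free RNA recovered by 8% native PAGE after purified RbFox RRM (wild type or mutant) at increasing concentrations was equilibrated for 10 min in 50 µL with 1 nM of a 5′-radiolabelled pool with 7 randomized nucleotides and DNA-annealed flanks.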

Row | Binder | binding signal
1 | B1 | 0.0836 KA relative to UGCAUGU
2 | B2 | 0.081 KA relative to UGCAUGU
3 | B3 | 0.0758 KA relative to UGCAUGU
4 | B4 | 0.104 KA relative to UGCAUGU
5 | B5 | 0.0808 KA relative to UGCAUGU
6 | B6 | 0.191 KA relative to UGCAUGU
7 | B7 | 0.175 KA relative to UGCAUGU
8 | B8 | 0.12 KA relative to UGCAUGU
9 | B9 | 0.0873 KA relative to UGCAUGU
10 | B10 | 0.112 KA relative to UGCAUGU
11 | B11 | 0.144 KA relative to UGCAUGU
12 | B12 | 0.0831 KA relative to UGCAUGU
13 | B13 | 0.0735 KA relative to UGCAUGU
14 | B14 | 0.0803 KA relative to UGCAUGU
15 | B15 | 0.0534 KA relative to UGCAUGU
16 | B16 | 0.0759 KA relative to UGCAUGU

Row | Binder | binding signal
17 | B17 | 0.0548 KA relative to UGCAUGU
18 | B18 | 0.0792 KA relative to UGCAUGU
19 | B19 | 0.13 KA relative to UGCAUGU
20 | B20 | 0.0677 KA relative to UGCAUGU
21 | B21 | 0.166 KA relative to UGCAUGU
22 | B22 | 0.149 KA relative to UGCAUGU
23 | B23 | 0.065 KA relative to UGCAUGU
24 | B24 | 0.135 KA relative to UGCAUGU
25 | B25 | 0.172 KA relative to UGCAUGU
26 | B26 | 0.25 KA relative to UGCAUGU
27 | B27 | 0.0571 KA relative to UGCAUGU
28 | B28 | 0.0781 KA relative to UGCAUGU
29 | B29 | 0.262 KA relative to UGCAUGU
30 | B30 | 0.115 KA relative to UGCAUGU
31 | B31 | 0.0952 KA relative to UGCAUGU
